One may read the inhibition as the drop in the measured response relative to a control, in per cent.

Molecules are shown by their SMILES. Several values for one entry are separate records, joined by “and”; a condition that tells them apart may be missing. Equal entries are not always repeated. The whole screen tested about 340,000 compounds, of which about 6,900 (2%) were called active. No stated cut-off is given here; in the data, active means inhibition above about 30%; inactive means below that, where a call was filed. The list shows a part of the results, in another mix than the full data. The source gives no active or inactive call for entries shown without one.

In this assay the target is D(2) dopamine receptor (Homo sapiens) (UniProt P14416). Description: HTS Assay for Allosteric Antagonists of the Human D2 Dopamine Receptor: Primary Screen for Antagonists. Further: 0% is about no effect. The following applies: HEK293 TREx D2 cells, calcium flux, dopamine EC80; at 10 µM; stronger effect = higher value. A digest of the protocol: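 Calcium mobilization kinetics were recorded at 1 s intervals in tetracycline-induced HEK293 T-REx D2 cells, first for 180 s after compound addition and then 180 s after EC80 dopamine.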
UniProt P14416, sequence (P14416 whole entry, looked up): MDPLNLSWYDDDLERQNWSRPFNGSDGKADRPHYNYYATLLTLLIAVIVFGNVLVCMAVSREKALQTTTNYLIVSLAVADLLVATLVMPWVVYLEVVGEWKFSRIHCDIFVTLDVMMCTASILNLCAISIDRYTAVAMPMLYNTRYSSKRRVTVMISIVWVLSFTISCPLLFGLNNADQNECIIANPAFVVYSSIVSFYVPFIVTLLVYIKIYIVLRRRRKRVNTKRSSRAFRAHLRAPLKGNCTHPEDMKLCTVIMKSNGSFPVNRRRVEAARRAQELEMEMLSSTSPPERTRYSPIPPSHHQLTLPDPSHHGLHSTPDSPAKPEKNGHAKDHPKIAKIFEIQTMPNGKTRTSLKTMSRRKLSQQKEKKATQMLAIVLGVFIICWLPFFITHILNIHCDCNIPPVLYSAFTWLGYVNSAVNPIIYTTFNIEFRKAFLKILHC
A general note: A change in cytosolic calcium serves as a functional read-out for many receptors and channels.
As for `CCc1ccc(NC(=O)CSc2nccn2-c2cccc(C)c2C)cc1`, the inhibition was determined as 19.7%.
With `CCc1ccc(NC(=O)c2ccc(F)c(S(=O)(=O)N(C)C3CCCCC3)c2)cc1`, the inhibition stood at 11.9%.
Next, `Cc1ccc(C2CC(=O)N(Cc3ccccc3)c3c2c(C)nn3-c2nc(C)cc(C)n2)cc1` (centres undefined): 8.53%.
The same measure for `CC1CN(C(=O)N2CCC(C(=O)NCCC3=CCCCC3)CC2)c2cc(Cl)ccc2O1` (centres undefined): 16.9%; for `COc1ccc(NC(=O)CSc2nc3ccncc3[nH]2)c(OC)c1`: -4.51%; for `COc1ccc(-c2cn3nc(N4CCC(C(=O)Nc5cccc(OC)c5)CC4)sc3n2)cc1`: -7.26%.
Next, `CCOc1ccc(Sc2cc(C(=O)NC(C)CC)c3ccccc3n2)cc1` (centres undefined): 15.9%.
Take `Cc1ccc(NC(=O)N2CCN(c3ncccc3C(F)(F)F)CC2)cc1`: the inhibition was active: 37.4%.
With `O=C(Cn1ncc2c3ccccc3n(Cc3ccc(Cl)cc3)c2c1=O)NCc1cccs1`, the inhibition was 4.99%.
For the compound `COc1ccc(N2CCN(S(=O)(=O)c3ccc(OC)c(-c4noc(C)n4)c3)CC2)cc1`, the inhibition is 21.4%.
As to `Cc1nc2sc(C(=O)Nc3ccc(F)cc3)c(N)c2c(-c2ccc(Br)cc2)c1C(=O)Nc1ccc(Cl)cc1`, the inhibition was -3.61%.
For `CCc1cccc(NC(=O)c2cnc(SC)nc2-c2ccccc2)c1`, the inhibition stood at 5.82%.
Next, `Cc1cc2nc(-c3ccc(OCc4ccc(F)cc4)cc3)cc(C(F)(F)F)n2n1`: 2.08%; `COC(=O)c1ccc(NC(=O)CC2C(=O)N(c3ccc(F)cc3)C(=O)N2Cc2ccc(OC)cc2)cc1` (centres undefined): -8.61%; `CCCCOc1ccc(C(=O)NCCc2sc(-c3cccc(F)c3)nc2C)cc1`: 20.2%.
As for `Cc1ccc(C)c(Cn2c(=O)n(Cc3ccc4c(c3)OCO4)c(=O)c3oc4ccccc4c32)c1`, the inhibition is 19.6%.
For the compound `O=C(Nc1ccc(NC(=O)c2cccs2)cc1)c1cccc(Br)c1`, the inhibition was determined as 3.66%.
Next, `COc1ccccc1NC(=O)c1oc2ccccc2c1NC(=O)c1ccccc1C(F)(F)F`: 4.34%; `Cc1cccc(NC(=O)c2sc3nc4c(cc3c2N)CN(Cc2ccccc2)CC4)c1`: -2.38%.
Next, `CCCn1c(=O)c2sccc2n2c(CCCC(=O)Nc3ccccc3OCC)nnc12`: -19.9%; `COc1ccc(CC(=O)N2CC(=O)Nc3ccc(Br)cc3C2c2ccc(F)cc2)cc1` (centres undefined): 13.7%; `Cc1ccc(CN(C(=O)COc2ccc(C(C)C)cc2)C2CCS(=O)(=O)C2)o1` (centres undefined): 4.13%.
As to `N#Cc1ccccc1Cn1c(=O)n(CCCCC(=O)NCc2ccc3c(c2)OCO3)c(=O)c2ccccc21`, the inhibition was -7.14%.
For `Cc1ccc(CNC(=O)c2nc(-c3ccc(Cl)cc3)n3c2CCCCC3)cc1`, the inhibition was -5.82%.
`COc1ccc(CCNC2CCc3ccccc3C2)cc1` (centres undefined): the inhibition is active: 81%.
The same measure for `Cc1ccccc1C(=O)Nc1nnc(S(=O)(=O)N(C)Cc2ccc(Cl)cc2)s1`: -5.48%; for `COc1ccc(CNC(=O)COC(=O)c2n[nH]c3ccccc23)cc1OC`: active: 30.3%.
Next, `O=C(Cc1ccc(F)cc1)N1CCC(c2nc3c(nnn3Cc3ccc(F)cc3)c(=O)[nH]2)CC1`: 14.9%; `COc1ccc(OCC(=O)Nc2ccc(O)c(-c3nc4ccccc4s3)c2)cc1`: 5.91%; `O=C(NCCSCc1ccccc1Cl)C1CCN(S(=O)(=O)Cc2ccccc2)CC1`: -2.92%.
The same measure for `COc1cc2c(C(=O)Nc3ccc(C)cc3Br)cn(C)c(=O)c2cc1OC`: -9.1%; for `CCOC(=O)c1ccc(NC2=CC(c3ccc(O)c(OCC)c3)N(c3ccc(C(=O)OCC)cc3)C2=O)cc1` (centres undefined): 2.74%.
Consider `CC(C)OC(=O)C1C(=O)CC(C)(O)C(C(=O)OC(C)C)C1c1cccc(O)c1` (centres undefined), for which the inhibition is active: 31.8%.
The same measure for `CCCN1CCN(CCNC(=O)Nc2cc(C)ccc2OC)CC1`: -20.9%; for `CCOc1ccccc1NC(=O)c1sc2nc(-c3ccc(OC)cc3)ccc2c1N`: -7.78%.
The same measure for `CCC1CCCCN1CCCNC(=O)c1c(O)nc2c(C)cccn2c1=O` (centres undefined): 5.96%; for `COc1ccc(-n2c(/C=C/c3cccc4ccccc34)nc3ccccc3c2=O)cc1Cl`: -8.5%; for `CCCCNc1nc(Oc2ccc(OCCC)nn2)nc(N(C)C)n1`: 0.256%.
On to `COc1ccc(OC)c(CCNC(=O)CN2C(=O)COc3ccc(S(=O)(=O)N4CCC(C)CC4)cc32)c1`, for which the inhibition was -4.52%.
The same measure for `COc1ccc(CC(=O)Nc2c(C(=O)Nc3ccc(F)cc3)oc3ccccc23)cc1OC`: 1.49%.
The same measure for `Cc1nn(-c2ccc(N3CCCC3)nn2)c(C)c1CCC(=O)NCc1ccccc1F`: -4.19%; for `O=C(CCSCc1ccccc1F)N1CCN(c2ccc(Cl)cc2)CC1`: -8.18%.
Take `O=C(c1ccccc1)n1nc(-c2ccco2)nc1NCc1cccs1`: the inhibition is -1.47%.
The same measure for `Cc1ccc(Cn2cc(/C=C(/C#N)C(=O)Nc3cccc(Cl)c3)c3ccccc32)cc1`: 4.74%; for `Cc1ccc(S(=O)(=O)N2CCc3cc(C(=O)Nc4ccc(C)c(C)c4)ccc32)cc1`: -19%; for `O=c1cc(-c2ccccc2)nc2cc(-c3ccc(F)cc3)[nH]n12`: 4.89%.
`CCC(=O)OCc1cnc(C)c2oc(=O)c(C(=O)Nc3ccccc3C(F)(F)F)cc12`: the inhibition is -2.92%.
`Cc1cccc(N(C)C(=O)CN(C)S(=O)(=O)c2ccc3[nH]c4c(c3c2)CCCC4)c1`: the inhibition is 5.79%.
Regarding `COc1cc2ccccc2cc1C(=O)Nc1cc(-c2nc3ccccc3o2)ccc1C`, the inhibition was -2.19%.
For the compound `COc1ccc(CNC(=O)CSc2ncc3c(n2)-c2cc(Cl)ccc2N(Cc2ccccc2)S3(=O)=O)cc1OC`, the inhibition was 7.99%.
Take `COc1ccccc1NC(=O)Cn1c(=O)n(CCc2ccccc2)c(=O)c2c3c(sc21)CN(C(C)=O)CC3`: the inhibition was found to be 11.2%.
Turning to `Cc1nnc(SCc2nc(-c3ccc(Cl)cc3)no2)n1-c1ccc(F)cc1`, the inhibition came out at 1.31%.
Next, `CCN(CC)C(=O)c1sc2c(c1C)c(=O)n(-c1ccc(C)c(C)c1)c(=O)n2Cc1cc(=O)n2c(C)cccc2n1`: -12.2%; `CCn1c(=O)cc(OCC(=O)NCc2ccccc2Cl)c2ccccc21`: -7.42%; `COc1cccc(CNC(=O)C(NS(=O)(=O)c2ccc3c(c2)oc(=O)n3C)C(C)C)c1` (centres undefined): -4.5%.
Next, `COc1ccc(O)c(C2Nc3ccccc3-n3c(-c4ccccc4)c4c(=O)n(C)c(=O)n(C)c4c32)c1` (centres undefined): 20.4%.
The same measure for `COc1ccc(S(=O)(=O)Nc2cccc(-c3ccc(N4CCCCCC4)nn3)c2)cc1`: -7.27%.
Consider `Cc1nnsc1C(=O)Oc1ccc(C(C)C)cc1`, for which the inhibition was -14.2%.
Next, `Cc1cccc(NC(=O)CSc2nc(C3CCCC3)nc3c2c(=O)n(C)c(=O)n3C)c1C`: -4.09%.
The same measure for `Cc1ccc(NC(=O)Cn2c(CCC(=O)O)ccc2-c2ccc(Cl)cc2)cc1`: 3.22%.
Next, `COC(=O)c1ccc(NC(=O)Cn2nc(C(=O)Nc3ccc(C)cc3)ccc2=O)cc1`: -4.97% and active: 30%; `COc1ccccc1N1CCN(c2ncnc3c2nc2n3CCCC2)CC1`: -2.18%.
For `Cc1ccc(Cn2cc(CCC(=O)NCc3ccccc3F)c3ccccc32)cc1`, the inhibition was -1.03%.
On to `CCN(CC)S(=O)(=O)c1ccc2c(c1)N(CC(=O)N(C)Cc1ccccc1)C(=O)CO2`, for which the inhibition is -4.37%.
The same measure for `O=C(CNC(=O)c1ccc(Cl)cc1)OCc1cc(=O)n2ccsc2n1`: 15.5%; for `COc1ccc(-c2[nH]c3c(c2-c2c(-n4cccc4)n(C)c(=O)n(C)c2=O)c(=O)n(C)c(=O)n3C)cc1`: 1.94%.
As to `CN1CCN(Cc2cc(=O)oc3ccc(Cl)cc23)CC1`, the inhibition was active: 44.8%.
As to `CCCCn1c(Nc2ccccc2)nc2ccccc21`, the inhibition is active: 35.8%.
Next, `COc1ccc(C)cc1NC(=O)C(=O)NCC1(c2ccccc2)CCCC1`: -5.66%; `O=C(Nc1nnc(S(=O)(=O)N2CCN(c3ccc(F)cc3)CC2)s1)c1ccc(Cl)cc1`: -4.06%.
The same measure for `CCCCSCCCNC(=O)CN1C(=O)COc2ccc(S(=O)(=O)N3CCC(C)CC3)cc21`: 2.83%; for `Cc1ccc(C(=O)Nc2ccc(C(=O)OCc3cc(=O)n4ccsc4n3)cc2)cc1`: 9.18%.
Regarding `O=C1c2cccc3c(O)ccc(c23)C(=O)N1Cc1ccccc1`, the inhibition was active: 33.8%.
For the compound `CCCCOc1ccc(C(=O)N(C)CC(=O)Nc2ccc(C)cc2)cc1`, the inhibition is active: 54.7%.
As for `CC(C)(C)c1ccc(C2NC(=O)c3n[nH]c(-c4cccs4)c32)cc1` (centres undefined), the inhibition turned out to be 10.4%.
Next, `Cc1cc(C(=O)NCCc2ccc(Cl)cc2)c2c(C)nn(-c3cccc(F)c3)c2n1`: -4.44%; `COC(=O)c1cc2sc(Cl)cc2n1Cc1nc(-c2ccc(OC)cc2)oc1C`: 6.83%.
As for `COc1ccc(N(CC(=O)NCCc2cccc(C)c2)S(=O)(=O)c2c(C)noc2C)cc1`, the inhibition is 8.76%.
In the case of `Cc1ccc(NC(=O)CCNCc2ccco2)cc1S(=O)(=O)N(C)C`, the inhibition is active: 33.6%.
For the compound `COc1cccc(C(=O)Nc2cc3cc(OC)ccc3oc2=O)c1`, the inhibition turned out to be 3.15%.
Take `Cc1cc(C)c2c(n1)SCCN2C(=O)Nc1ccc(C(=O)Nc2cc(Cl)ccc2C)cc1`: the inhibition came to 4.77%.
The same measure for `Cn1cc(C(=O)NCc2ccc(Cl)cc2)c(=O)c2cc(S(=O)(=O)N3CCCCCC3)ccc21`: -10.5%; for `CCOc1ccccc1N1C(=O)CC(Sc2ncccc2C(=O)O)C1=O` (centres undefined): active: 35.6%.
Next, `Cc1cc(C)cc(NC(=O)N2CCN3CCCCC3C2)c1` (centres undefined): 1.46%; `O=C(NC1CCCCC1)c1c[nH]c2ccc(S(=O)(=O)Nc3ccccc3F)cc2c1=O`: -2.79%.
The same measure for `CCOC(=O)c1ccc(NC(=O)c2c(NCc3sccc3C)sc3c2CCCCC3)cc1`: -8.17%.
As for `CC(C)(C)c1ccc(C(=O)NC(Cc2c[nH]c3ccccc23)C(=O)OCC(=O)c2ccccc2)cc1` (centres undefined), the inhibition is -23.9%.
Next, `COc1ccc(-c2[nH]ncc2CN2CCN(c3ccccn3)CC2)c(OC)c1`: active: 57.4%; `COc1ccc(C(=O)C2CCCN(C/C=C/c3ccccc3OC)C2)c(OC)c1` (centres undefined): active: 85.6%; `CC1CCCN(c2cc3c(cc2F)c(=O)c(S(=O)(=O)c2cccc(Cl)c2)cn3C)C1` (centres undefined): 4.87%.
The same measure for `COc1ccc(Cn2c(=O)[nH]c3cc(C(=O)N4CCN(c5cccc(OC)c5)CC4)ccc3c2=O)cc1`: -6.53%; for `COC(CNC(=S)Nc1ccc([N+](=O)[O-])cc1)OC`: active: 35.4%; for `CCc1ccc(NC(=O)CSc2nc3ccccc3nc2Cc2ccccc2OC)cc1`: -13.4%.
Take `Cc1cccc(OCC(=O)Nc2ccc(-c3nc4cc(C)ccc4o3)c(O)c2)c1`: the inhibition amounted to 6.75%.
